59 compounds from PubChem BioAssay AID1963576 (National Center for Advancing Translational Sciences (NCATS), 2024) can be followed below.

Among all 46,000 compounds or so, about 60 (0.1%) were called active. Not shown: some 3% with an inconclusive outcome. Calls come from the whole dose curve; as a rule, active = well fitted inhibition curve with a large enough effect; inconclusive = small, poorly fitted or top-dose-only effect; inactive = no such curve, though single readings can be large or run the other way. The list shows a part of the results.

A short description of this assay: Primary qHTS assay for Inhibitors of ovarian cancer metastasis using an organotypic tumor microenvironment (TME) model.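 For activity change, negative = inhibition: plate controls were DMSO wells for no effect and tomatine positive control wells for full effect.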 Note: nearly all actives have a fitted effect of over 65% in size. The note with it: SKOV3ip1-GFP adhesion/invasion on 3D omental model, fluorescence; series mostly up to 45.8 µM; activity change, negative = inhibition: at the top concentration. Put shortly: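 qHTS, 4-pt dose (0.36-46 umol/L); SKOV3ip1-GFP, 1,200 cells/well, no FBS; primary omental fibroblast/mesothelial co-culture 48 h pre-grown; 2 h RT + 16 h 37 C; PBS wash, 4% PFA; GFP count 488/509 nm.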
On to `CC(=O)c1cccc(NC(=O)Cn2ccn3nc(-c4ccccc4)cc3c2=O)c1`, for which the “activity change, negative = inhibition” value was inactive: 0.984%.

On to `Cc1cccc(-n2c3nc(=O)[nH]c(=O)c-3cc3ccc(Cl)cc32)c1C`, for which the “activity change, negative = inhibition” value was inactive: -5.67%.

`CCOc1ccc(-c2cc(C(=O)NCCc3ccc(C)cc3)c3ccccc3n2)cc1`: the “activity change, negative = inhibition” value was inactive: -7.41%.

Turning to `COc1ccc(OC)c(-c2noc(N3CCN(c4cccc(C(F)(F)F)c4)CC3)n2)c1`, the “activity change, negative = inhibition” value was inactive: 25.8%.

For `O=C(CSc1nc2c([nH]c3ccccc32)c(=O)n1-c1ccccc1)N1CCCCC1`, the compound was classed as inactive.

For the compound `CC(C)CCNC(=O)c1cc(-c2cccnc2)nc2ccc(S(=O)(=O)N3CCC(C)CC3)cc12`, the “activity change, negative = inhibition” value was inactive: 8.06%.

`COc1ccc(NC(=O)c2nnn(-c3ccc(C(C)C)cc3)c2C)c(OC)c1`: the “activity change, negative = inhibition” value was inactive: 21.9%.

With `CCOC(=O)CC(NC(=O)Cn1nnc(-c2ccc(Cl)cc2)n1)c1ccc(OC)cc1` (centres undefined), the “activity change, negative = inhibition” value is inactive: 6.33%.

As to `COc1ccc(-c2coc3cc(O)cc(O)c3c2=O)cc1`, the “activity change, negative = inhibition” value is inactive: 14.5%.

With `Cn1c(CN2CCOCC2)nc2cc(NC(=O)c3ccccc3[N+](=O)[O-])ccc21`, the “activity change, negative = inhibition” value is inactive: 9.15%.

With `CCOc1cccc2sc(N3CCN(C(=O)c4ccco4)CC3)nc12`, the “activity change, negative = inhibition” value is inactive: -5.46%.

On to `O=C(Cn1nc(-c2ccccc2)c2c(c1=O)CCCC2)Nc1ccc(F)c(Cl)c1`, for which the call was inactive.

As to `CCn1c(C(=O)Nc2c(C)cccc2C)cc2sc(Cl)cc21`, the “activity change, negative = inhibition” value was inactive: 0.475%.

`CN(C(=O)c1cc2c(Cl)nc3ccccc3c2s1)c1cccc(C(F)(F)F)c1`: the compound was classed as inactive.

On to `COc1cccc(NC(=O)N(Cc2c[nH]c3ccccc23)C2CCCCCC2)c1`, for which the “activity change, negative = inhibition” value was inactive: 0.459%.

As for `Cc1ccc(NC(=O)c2oc3ccc(S(=O)(=O)N4CCCCCC4)cc3c2C)c(C)c1`, the “activity change, negative = inhibition” value is inactive: -4.31%.

Consider `COc1cccc(-c2noc(COc3ccc(C(C)(C)C)cc3)n2)c1`, for which the “activity change, negative = inhibition” value was inactive: 2.85%.

Regarding `Cc1ccccc1NS(=O)(=O)c1ccc2[nH]cc(C(=O)NC3CCCCC3)c(=O)c2c1`, the “activity change, negative = inhibition” value is inactive: -4.34%.

`COc1ccc(OC)c(NC(=O)Cn2c(=O)n(-c3cccc(C)c3)c(=O)c3c2c2cc(C)ccc2n3C)c1`: the “activity change, negative = inhibition” value was inactive: 5.02%.

As to `COc1ccc(-n2c(C)nnc2SCc2nc(-c3ccc(OC)c(OC)c3)no2)cc1`, the call was inactive.

`Cc1ccc(NC(=O)c2c(NC(=O)c3ccc(F)cc3)sc3c2CCCC3)cc1C`: the “activity change, negative = inhibition” value is inactive: 13.8%.

Take `COc1ccc(NC(=O)c2cc3c(=O)n(Cc4cccs4)ccc3nc2C)cc1`: the “activity change, negative = inhibition” value is inactive: 6.21%.

Regarding `COc1cccc(CNC(=O)CCCn2nc(C)c3sc4ccccc4c3c2=O)c1`, the outcome was inactive.

As for `CCOc1ccc(-n2c(SCC(=O)Nc3cc(C)on3)nc3c([nH]c4ccccc43)c2=O)cc1`, the “activity change, negative = inhibition” value was inactive: 7.29%.

For the compound `CCc1ccccc1N(C)C(=O)Cn1cnc2sc(C)c(S(=O)(=O)N3CCC(C)CC3)c2c1=O`, the “activity change, negative = inhibition” value was inactive: 10%.

As to `CCOC(=O)c1cc(OC(=O)c2cc(OC)c(OC)c(OC)c2)n(-c2ccccc2)n1`, the “activity change, negative = inhibition” value was inactive: -1.75%.

`CCOC(=O)c1c(C)oc2nc(C)nc(N3CCN(c4cc(Cl)ccc4C)CC3)c12`: the “activity change, negative = inhibition” value was inactive: 5.03%.

For the compound `COc1ccc(-c2cc3nc(C)c(CCC(=O)NCc4ccccc4Cl)c(C)n3n2)c(OC)c1`, the outcome was inactive.

`COc1ccc(N(CC(=O)N2CCN(c3ccccc3)CC2)S(=O)(=O)c2c(C)nn(C)c2C)cc1`: the “activity change, negative = inhibition” value was inactive: -2.24%.

`O=C(Cc1ccccc1)N(Cc1cccnc1)c1nc2c(Cl)cccc2s1`: the outcome was inactive.

As to `CCOC(=O)c1ccc(NC(=O)CSc2nc(-c3ccc(OC)cc3)cc(C(F)(F)F)c2C#N)cc1`, the “activity change, negative = inhibition” value was inactive: -9.11%.

On to `CCn1cc2nc(SCC(=O)Nc3ccc(OC)c(Cl)c3)n(Cc3ccc(OC)cc3)c(=O)c2n1`, for which the “activity change, negative = inhibition” value was inactive: -5.3%.

As for `CC(C)c1noc(N2CCC(COc3ccc(-c4ccc(S(C)(=O)=O)cc4)nc3)CC2)n1`, the “activity change, negative = inhibition” value is inactive: -12%.

With `Cc1ccc(Nc2ccc3cc(S(=O)(=O)N4CCCCC4)ccc3n2)cc1F`, the “activity change, negative = inhibition” value is inactive: -9.19%.

For the compound `COc1ccc(C)cc1NC(=O)Cn1c(=O)oc2cc(S(=O)(=O)N3CCCCC3)ccc21`, the compound was called inactive.

For `CCc1cccc(C)c1NC(=O)C1CCN(S(=O)(=O)c2c(C)noc2/C=C/c2c(C)cc(C)cc2C)CC1`, the call was inactive.

Turning to `CCOc1ccc(NC(=O)NCCN2CCN(c3cccc(C)c3C)CC2)cc1`, the result was inactive.

Take `N#Cc1nc(COc2ccccc2Cl)oc1NCCc1ccccc1`: the “activity change, negative = inhibition” value was inactive: -4.52%.

With `CCc1nnc(SC(CC)C(=O)Nc2ccc(OC)c(Cl)c2)c2cc3occc3n12` (centres undefined), the “activity change, negative = inhibition” value is inactive: 0.634%.

In the case of `CC(=O)c1ccc(NC(=O)c2cn(-c3ccccc3)nc2-c2ccc(Br)cc2)cc1`, the “activity change, negative = inhibition” value was inactive: 5.85%.

With `O=C(CCC1CCCC1)N1CCc2c([nH]c3ccccc23)C1c1ccc(F)cc1` (centres undefined), the outcome was inactive.

As for `CCOc1ccc(C2CC(=O)NC(NC(=O)c3cccc(Cl)c3)=N2)cc1` (centres undefined), the result was inactive.

Consider `Cc1cc(C)c(NS(=O)(=O)c2ccc3c(c2)CC(C)N3C(=O)C2CCC2)c(C)c1` (centres undefined), for which the “activity change, negative = inhibition” value was inactive: 6.12%.

Consider `COc1cccc(-n2ccn(CC(=O)NCc3ccc(C)cc3)c(=O)c2=O)c1`, for which the result was inactive.

Regarding `COc1ccccc1NC(=O)c1c(C)cc(C)nc1SCC(=O)Nc1ccc(C)c(C)c1`, the “activity change, negative = inhibition” value was inactive: 5.93%.

As for `COc1ccccc1CNC(=O)CCCn1c(=O)c2ccccc2n(Cc2ccc(F)cc2)c1=O`, the compound was classed as inactive.

For `Cc1ccc(CCNC(=O)CN(c2cc(C)cc(C)c2)S(=O)(=O)c2c(C)noc2C)cc1`, the “activity change, negative = inhibition” value is inactive: 6.85%.

In the case of `COc1ccccc1Nc1nc(-c2ccc(F)cc2)c2c(n1)-c1ccccc1OC2`, the “activity change, negative = inhibition” value is inactive: -27.5%.

Turning to `Cc1ccc(-c2ccc(=O)n(CC(=O)NCCc3ccc(Cl)cc3)n2)cc1`, the “activity change, negative = inhibition” value was inactive: 7.81%.

For `COc1ccccc1-c1noc(-c2ccc(N3CCN(C)CC3)c([N+](=O)[O-])c2)n1`, the call was inactive.

As to `Cc1ccc(Cl)cc1N1CCN(C(=O)C2CCN(S(=O)(=O)Cc3ccccc3)CC2)CC1`, the “activity change, negative = inhibition” value was inactive: -2.36%.

As to `CCOC(=O)c1c(C)c(-c2ccccc2)n(CC(=O)Nc2ccc(OCC)cc2)c1C`, the result was inactive.

For `CCc1ccc(N(CC)C(=O)CCn2cnc3onc(-c4ccc(F)cc4)c3c2=O)cc1`, the compound was classed as inactive.

On to `COc1ccc(-c2cn3c(n2)sc2cc(C(=O)Nc4cccc(SC)c4)ccc23)cc1`, for which the compound was called inactive.

With `CCCCNS(=O)(=O)c1ccc(N2CCCCS2(=O)=O)cc1`, the “activity change, negative = inhibition” value is inactive: -3.06%.

As to `Cc1ccc(CSC2=Nc3ccccc3C3=NC(CC(=O)NCc4cccs4)C(=O)N23)c(C)c1` (centres undefined), the outcome was inactive.

As for `O=C(Nc1ccc2nc(SCCOc3ccccc3)sc2c1)c1ccccc1F`, the compound was called inactive.

As for `COc1cccc2c1cc1c(=O)n(CC(=O)N3CCN(c4cccc(Cl)c4)CC3)nc(C)n12`, the outcome was inactive.

For the compound `CCCOc1ccc(CNC(=O)c2ccc3c(c2)N(Cc2ccccc2)CCS3)cc1`, the “activity change, negative = inhibition” value is inactive: -2.65%.
